Where two headings read alike, the source gives them in different places.
Test system: IL-17 production by CD4 T cells
Test: Human Th17 Assay (IL-17 production under Th17 differentiation conditions)
[1] = Homo sapiens, CD4+ T, 72 h, read-out: Human Th17 Assay, IC50, IL-17 production, CD4 T cells, 3 days
[2] = read-out: Human Th17 Assay, IC50, IL-17 production, CD4 T cells, 3 days

IC50 [1] [nM]	IC50 [2] [nM]	Structure (SMILES)
29		COc1nc2ccc(C(O)(c3ccc(C)nc3C)c3cnnn3C)cc2c(Cl)c1Cc1ccc(S(C)(=O)=O)cc1 (single isomer, unassigned) [Example 117c, (4-Chloro-2-methoxy-3-(4-(methylsulfonyl)benzyl)quinolin-6-yl)(2,6-dimethylpyridin-3-yl)(1-methyl-1H-1,2,3-triazol-5-yl)methanol]
	1.7	COc1nc2ccc(C(O)(c3cc(C)nc(C)c3)c3cnnn3C)cc2c(Cl)c1Cc1ccc(C(F)(F)F)cc1 (single isomer, unassigned) [Example 84c, (4-Chloro-2-methoxy-3-(4-(trifluoromethyl)benzyl)quinolin-6-yl)(2,6-dimethylpyridin-4-yl)(1-methyl-1H-1,2,3-triazol-5-yl)methanol]
3.2		COc1nc2ccc(C(O)(c3sc(C)nc3C)c3cnnn3C)cc2c(Cl)c1Cc1ccc(-n2cccn2)cc1 (single isomer, unassigned) [Example 21c, (3-(4-(1H-Pyrazol-1-yl)benzyl)-4-chloro-2-methoxyquinolin-6-yl)(2,4-dimethylthiazol-5-yl)(1-methyl-1H-1,2,3-triazol-5-yl)methanol]
28		COc1nc2ccc(C(O)(c3ccc(F)cc3)c3cncn3C)cc2c(Cl)c1Cc1ccc(-n2cccn2)cc1 (single isomer, unassigned) [Example 160c, (3-(4-(1H-Pyrazol-1-yl)benzyl)-4-chloro-2-methoxyquinolin-6-yl)(4-fluorophenyl)(1-methyl-1H-imidazol-5-yl)methanol]
	70	COc1nc2ccc(C(O)(c3ccccn3)c3cncn3C)cc2c(Cl)c1Cc1cc2ccccc2s1 (single isomer, unassigned) [Example 59b, (3-(Benzo[b]thiophen-2-ylmethyl)-4-chloro-2-methoxyquinolin-6-yl)(1-methyl-1H-imidazol-5-yl)(pyridin-2-yl)methanol]
45		Cc1nc2ccc(C(O)(c3ccc(C(F)(F)F)nc3)c3cncn3C)cc2c(Cl)c1Cc1ccc(C(F)(F)F)cc1 (single isomer, unassigned) [Example 26b, (4-Chloro-2-methyl-3-(4-(trifluoromethyl)benzyl)quinolin-6-yl)(1-methyl-1H-imidazol-5-yl)(6-(trifluoromethyl)pyridin-3-yl)methanol]
	1000	COc1nc2ccc(C(O)(c3cccnc3)c3ccc(Cl)c(Cl)c3)cc2c(Cl)c1Cc1ccc(-n2cccn2)cc1 (single isomer, unassigned) [Example 161b, (3-(4-(1H-Pyrazol-1-yl)benzyl)-4-chloro-2-methoxyquinolin-6-yl)(3,4-dichlorophenyl)(pyridin-3-yl)methanol]
18		Cn1cncc1C(O)(c1ccc2nc(C(F)(F)F)c(Cc3ccccc3)c(C#N)c2c1)c1ccccn1 (single isomer, unassigned) [Example 99c, 3-Benzyl-6-(hydroxy(1-methyl-1H-imidazol-5-yl)(pyridin-2-yl)methyl)-2-(trifluoromethyl)quinoline-4-carbonitrile]
	84	COc1nc2ccc(C(O)(c3ccccc3)C3CCN(C(C)=O)CC3)cc2c(Cl)c1Cc1ccc(C(F)(F)F)cc1 (single isomer, unassigned) [Example 69c, 1-(4-((4-Chloro-2-methoxy-3-(4-(trifluoromethyl)benzyl)quinolin-6-yl)(hydroxy)(phenyl)methyl)piperidin-1-yl)ethanone]
	37	Cc1cc(C(O)(c2ccc(C(F)(F)F)nc2)c2cncn2C)cc2c(Cl)c(Cc3ccc(-n4cccn4)cc3)c(N3CCC3)nc12 (single isomer, unassigned) [Example 137c, {2-Azetidin-1-yl-4-chloro-8-methyl-3-[4-(1H-pyrazol-1-yl)benzyl]quinolin-6-yl}(1-methyl-1H-imidazol-5-yl)[6-(trifluoromethyl)pyridin-3-yl]methanol]
650		COc1nc2ccc(C(O)(c3ccccn3)c3cncn3C)cc2c(Cl)c1Cc1ccc(S(C)(=O)=O)cc1 (single isomer, unassigned) [Example 58c, (4-Chloro-2-methoxy-3-(4-(methylsulfonyl)benzyl)quinolin-6-yl)(1-methyl-1H-imidazol-5-yl)(pyridin-2-yl)methanol]
	30	COc1nc2ccc(C(O)(c3cncn3C)C3CCOCC3)cc2c(Cl)c1Cc1ccc(-n2cccn2)cc1 (single isomer, unassigned) [Example 1c, (3-(4-(1H-Pyrazol-1-yl)benzyl)-4-chloro-2-methoxyquinolin-6-yl)(1-methyl-1H-imidazol-5-yl)(tetrahydro-2H-pyran-4-yl)methanol]
	6	COc1nc2ccc(C(O)(c3ccccc3)C3CCN(C(C)=O)CC3)cc2c(Cl)c1Cc1ccc(C(F)(F)F)cc1 (single isomer, unassigned) [Example 69b, 1-(4-((4-Chloro-2-methoxy-3-(4-(trifluoromethyl)benzyl)quinolin-6-yl)(hydroxy)(phenyl)methyl)piperidin-1-yl)ethanone]
3		Cc1cc(C(O)(c2ccnc(C(F)(F)F)c2)c2cncn2C)cc2c(C#N)c(Cc3ccc(-n4cccn4)cc3)c(C#N)nc12 (single isomer, unassigned) [Example 83b, 3-(4-(1H-Pyrazol-1-yl)benzyl)-6-(hydroxy(1-methyl-1H-imidazol-5-yl)(2-(trifluoromethyl)pyridin-4-yl)methyl)-8-methylquinoline-2,4-dicarbonitrile]
	570	COc1nc2ccc(C(O)(c3ccc(F)cc3)c3cccnc3)cc2c(Cl)c1Cc1ccc(-n2cccn2)cc1 (single isomer, unassigned) [Example 158b, (3-(4-(1H-Pyrazol-1-yl)benzyl)-4-chloro-2-methoxyquinolin-6-yl)(4-fluorophenyl)(pyridin-3-yl)methanol]
	36	COc1nc2ccc(C(O)(c3cnnn3C)C3CCN(C(C)=O)CC3)cc2c(Cl)c1Cc1ccc(C(F)(F)F)cc1 (single isomer, unassigned) [Example 74c, 1-(4-((4-Chloro-2-methoxy-3-(4-(trifluoromethyl)benzyl)quinolin-6-yl)(hydroxy)(1-methyl-1H-1,2,3-triazol-5-yl)methyl)piperidin-1-yl)ethanone]
720		Cn1cncc1C(O)(c1ccc(Cl)cc1)c1ccc2nc(N3CCC3)c(Cc3ccc(-n4cccn4)cc3)c(Cl)c2c1 (single isomer, unassigned) [Example 138c, {2-Azetidin-1-yl-4-chloro-3-[4-(1H-pyrazol-1-yl)benzyl]quinolin-6-yl}(4-chlorophenyl)(1-methyl-1H-imidazol-5-yl)methanol]
~2000		Cn1cncc1C(O)(c1ccc(C(F)(F)F)nc1)c1ccc2nc(N3CC(O)C3)c(Cc3ccc(-n4cccn4)cc3)c(Cl)c2c1 (single isomer, unassigned) [Example 134b, 1-(4-Chloro-6-{hydroxy(1-methyl-1H-imidazol-5-yl)[6-(trifluoromethyl)pyridin-3-yl]methyl}-3-[4-(1H-pyrazol-1-yl)benzyl]quinolin-2-yl)azetidin-3-ol]
15		Cc1ccc(C(O)(c2ccc3nc(NC4CC4)c(Cc4ccc(C(F)(F)F)cc4)c(Cl)c3c2)c2cnnn2C)c(C)n1 (single isomer, unassigned) [Example 143c, {4-Chloro-2-(cyclopropylamino)-3-[4-(trifluoromethyl)benzyl]quinolin-6-yl}(2,6-dimethylpyridin-3-yl)(1-methyl-1H-1,2,3-triazol-5-yl)methanol]

— patent EP3057951B1, “METHYLENE LINKED QUINOLINYL MODULATORS OF ROR-GAMMA-T” (Janssen Pharmaceutica NV, priority 2013, dated 2015)
